According to PubChem BioAssay AID485294 (National Center for Advancing Translational Sciences (NCATS), 2010):
In all, about 370,000 compounds went through this assay and about 150 (0.041%) were called active. The inconclusive results got no clear call from the source; some entries with a clear call stand among them for comparison. Calls come from the whole dose curve; as a rule, active = well fitted inhibition curve with a large enough effect; inconclusive = small, poorly fitted or top-dose-only effect; inactive = flat fitted curve, though single readings scatter. No potency is given beside an inconclusive call; the fits are too rough.

Each compound was assayed against Beta-lactamase (Escherichia coli (strain K12)) (UniProt P00811) (assay: qHTS Inhibitors of AmpC Beta-Lactamase (assay with detergent)). Details: AmpC hydrolysis of nitrocefin, absorbance 480 nm, 0.01% Triton; series mostly up to 114 µM.
Method in brief: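 AmpC (5.3 nM in the dispensed reagent) in 20 mM phosphate pH 7.0 with 0.01% (detergent screen) or 0.0001% Triton X-100 was preincubated with compounds for 15 min at room temperature. Nitrocefin was then added from an 800 uM solution, and hydrolysis was followed at 480 nm.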
Note: nearly all actives have a fitted effect of over 25% in size.
Potency is the fitted concentration of half-maximal effect; tags give direction and shape of the fitted curve.

Chain of UniProt P00811 (P00811 whole entry, looked up): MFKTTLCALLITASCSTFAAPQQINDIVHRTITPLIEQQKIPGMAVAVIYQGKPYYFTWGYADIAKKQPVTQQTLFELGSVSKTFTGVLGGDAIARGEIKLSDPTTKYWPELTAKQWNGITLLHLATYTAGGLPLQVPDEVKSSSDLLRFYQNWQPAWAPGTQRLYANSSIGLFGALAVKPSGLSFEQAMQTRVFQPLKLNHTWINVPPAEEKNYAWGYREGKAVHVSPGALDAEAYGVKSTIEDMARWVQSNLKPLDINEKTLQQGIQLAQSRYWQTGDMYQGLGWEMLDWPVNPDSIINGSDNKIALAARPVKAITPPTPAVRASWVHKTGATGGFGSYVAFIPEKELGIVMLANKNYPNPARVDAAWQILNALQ

SMILES	Potency
COc1ccc(C(CNC(=O)c2cccc(S(=O)(=O)NCc3ccccc3)c2)N2CCOCC2)cc1 (stereo not given)	inconclusive [inhibitor, full curve]
O=C(c1cnc2n(c1=O)CCS2)N(C1CCCCC1)C1CCCCC1	inconclusive [inhibitor, full curve, poor fit]
CC/C(=N/Nc1ccccc1Cl)c1cnnc(-c2ccccc2)n1	inconclusive [inhibitor, full curve]
CC(OC(=O)Cc1n[nH]c(=O)c2ccccc12)C(=O)Nc1cc(Cl)cc(Cl)c1 (stereo not given)	inconclusive [inhibitor, partial curve]
CCOc1ccc(NC(=O)c2cc(C)nc3ccccc23)cc1	inconclusive [inhibitor, full curve, poor fit]
O=C(COc1ccc(F)cc1)NCC1CCCO1 (stereo not given)	inconclusive [inhibitor, full curve, poor fit]
CC(C)NC(=O)C(Cc1ccccc1)N1C(=O)c2ccccc2C1=O (stereo not given)	inconclusive [inhibitor, single point]
CC1=CC(=O)C=CC1(C)C(Cl)Cl (stereo not given)	inconclusive [inhibitor, full curve]
O=C/C=C/c1coc2ccc3ccccc3c2c1=O	inactive
CCN(CC(=O)NCc1cccs1)C(=O)/C=C/c1ccc(OC)c(OC)c1	inconclusive [inhibitor, partial curve, poor fit]
COc1ccc(-c2cc(C(=O)Nc3cc(Cl)ccc3O)no2)cc1	inactive
COc1cccc(Nc2nc(=O)[nH]nc2C)c1	inconclusive [inhibitor, full curve]
C=CCn1c(=NC(=O)CN2C(=O)CCC2=O)sc2cccc(OC)c21	inconclusive [inhibitor, full curve]
CCOC(=O)c1c(N)sc(C(=O)Nc2ccccc2)c1C	inactive
Cc1cccc(NC(=O)CN2C(=O)N/C(=C/c3cc(C)n(C(C)C)c3C)C2=O)c1	inconclusive [inhibitor, full curve]
O=C(N/N=C/c1ccc2c(c1)OCO2)C(=O)Nc1cccc(Cl)c1	inactive
CC12CN(C(=O)c3cccc([N+](=O)[O-])c3)C3(C#N)CC1CCC23C (stereo not given)	inconclusive [inhibitor, partial curve, poor fit]
Cc1ccc(CSc2nnc(-c3ccco3)n2N)cc1	inconclusive [inhibitor, full curve, poor fit]
O=C(N/C(=C\c1cn(-c2ccccc2)nc1-c1ccccc1)C(=O)N1CCOCC1)c1ccccc1	inconclusive [inhibitor, single point]
COc1ccc(N2C(=O)CSC2c2cccs2)cc1 (stereo not given)	inconclusive [inhibitor, partial curve]
O=C(O)CC1OCC=C2CN3CCC45C6=CC(=O)C(=O)C([N+](=O)[O-])=C6NC4C1C2CC35 (stereo not given)	inactive
CC(=O)Nc1cccc(NC(=O)c2cc3c(=O)n4cccc(C)c4nc3n2C)c1	inactive
C(=N\Nc1nc(-c2ccccc2)cs1)/c1ccncc1	inactive
O=C(NCCc1ccc(F)cc1)c1ccc(Cl)c(S(=O)(=O)N2CCOCC2)c1	inactive

SMILES	Potency
CCOC(=O)C1(P(=O)(c2ccccc2)c2ccccc2)CCC1	inconclusive [inhibitor, single point]
O=C(NC1CCCCC1)N1CCCC(c2nc(-c3cccs3)no2)C1 (stereo not given)	inconclusive [inhibitor, full curve]
COc1ccc2c(c1)c1c(c(=O)n(CCc3ccccc3)c(=O)n1Cc1cccc(Cl)c1)n2C	inactive
Cc1ccc(NC2=NCC(=O)N2Cc2ccc3c(c2)OCO3)c(C)c1	inconclusive [inhibitor, full curve, poor fit]
CCOc1ccc(NC(=O)Nc2ccc3c(c2)nc(C)n3C)cc1	inactive
c1ccc(Nc2nc(-c3ccncc3)nc3ccccc23)cc1	inconclusive [inhibitor, partial curve, poor fit]
Cc1ccc(Nc2nc(C(=O)NCCCN3CCOCC3)cs2)cc1	inconclusive [inhibitor, partial curve]
Cc1ccc(NC(=O)C2CCCN(S(=O)(=O)c3ccc4[nH]c(=O)ccc4c3)C2)cc1Cl (stereo not given)	inactive
N=C1/C(=C\c2ccc(OCc3ccccc3)cc2)C(=O)N=C2SC(N3CCCC3)=NN12	inactive
Nc1c(C(=O)Nc2ccccc2)sc2nc(-c3cccnc3)ccc12	inactive
O=C1CC(Nc2ccc(N3CCOCC3)cc2)C(=O)N1Cc1ccccc1 (stereo not given)	inconclusive [inhibitor, single point]
Cc1ccc(NC(=O)C2CCN(S(=O)(=O)c3cccnc3)CC2)cc1C	inconclusive [inhibitor, full curve, poor fit]
O=C(COC(=O)/C=C/c1cccc(Cl)c1)NCCc1ccccc1	inconclusive [inhibitor, single point]
Cn1c(CCN2CCCCC2)nc2cc(NC(=O)NC3CCCCC3)ccc21	inconclusive [inhibitor, full curve, poor fit]
Cc1nc2ccccc2c(=O)n1/N=C/c1cn(-c2ccccc2)nc1-c1cccs1	inconclusive [inhibitor, full curve, poor fit]
COc1ccc(NC(=O)/C(=C/c2ccc(OC(C)=O)c(OC)c2)NC(C)=O)cc1	inconclusive [inhibitor, full curve, poor fit]
COc1ccc2c(c1OC)C(=O)N1c3ccccc3COC21 (stereo not given)	inconclusive [inhibitor, full curve, poor fit]
COc1ccc(CC(=O)OCC(=O)N2CCN(S(=O)(=O)c3ccc(C)cc3C)CC2)cc1OC	inconclusive [inhibitor, partial curve]
Cc1ccc(Oc2ncnc3sccc23)cc1	inconclusive [inhibitor, full curve]
COC(=O)c1cn(C(=O)c2ccc(F)cc2)c2ccccc12	inactive
Cc1ccc(NC(=S)NCC2CCN(C(C)c3ccccc3)C2)cc1 (stereo not given)	inactive
Cc1ccccc1-c1nnc(SCC(=O)Nc2cccc(C)c2C)o1	inactive
O=C(O)c1ccc(OCC2CCCO2)cc1 (stereo not given)	inconclusive [inhibitor, full curve, poor fit]
O=C(Nc1ccc(Nc2ccccc2)cc1)c1ccc(Br)o1	inconclusive [inhibitor, full curve, poor fit]

SMILES	Potency
CC(C)(C)C(=O)Nc1ccc(C(=O)OC2CCCCC2)cc1	inconclusive [inhibitor, single point]
CS(=O)(=O)N1CCN(c2nc(-c3ccccc3)cs2)CC1	inconclusive [inhibitor, single point]
N/C(Cc1cccs1)=N\OC(=O)COc1ccc(Br)cc1Cl	inactive
CC(=O)c1c(C)oc2ccc(N(C(=O)Oc3ccccc3)S(=O)(=O)c3ccc(Cl)cc3)cc12	inactive
Cn1c(C(O)c2ccccc2F)nc(Cl)c1Cl (stereo not given)	inconclusive [inhibitor, full curve, poor fit]
CC1(C)Cc2c(sc3c2c(=N)n(Cc2ccco2)c(=O)n3Cc2ccccc2)CO1	inactive
COc1cc(/C=N/n2c(=S)[nH]nc(C)c2=O)cc([N+](=O)[O-])c1O	inactive
CCOC(=O)CCSCC(=O)Nc1cc(C)on1	inactive
O=C(CSc1ncn[nH]1)Nc1ccc(Cl)c(Cl)c1	inconclusive [inhibitor, full curve, poor fit]
Cc1ccc(-c2csc(N3CCC(C(N)=O)CC3)n2)cc1	inconclusive [inhibitor, full curve, poor fit]
Cc1[nH]nc2c1C(c1ccc3c(c1)OCO3)C(C#N)=C(N)O2 (stereo not given)	inconclusive [inhibitor, single point]
Cc1ccc(-c2c[n+](CC(=O)Nc3cc(=O)n(C)c(=O)n3C)c3n2CCC3)cc1	inactive
COc1ccc(C2C(C(=O)c3ccc(C)o3)=C(O)C(=O)N2Cc2cccnc2)cc1 (stereo not given)	inconclusive [inhibitor, partial curve, poor fit]
O=C1CSC(c2cccnc2)N1Cc1ccc(Cl)cc1Cl (stereo not given)	inconclusive [inhibitor, single point]
CCCn1c(NC(=O)CN2C(=O)NC3(CCCC3)C2=O)nc2ccccc21	inconclusive [inhibitor, single point]
Cn1cc(Cl)c(C(=O)NC2CCCC2)n1	inconclusive [inhibitor, full curve, poor fit]
Cc1ccc(NC(=O)C(Cc2ccccc2)NS(=O)(=O)c2ccc3c(c2)c(=O)n(C)c(=O)n3C)c(C)c1 (stereo not given)	inactive
O=C(CNCc1cccc2ccccc12)Nc1ccccc1[N+](=O)[O-]	inconclusive [inhibitor, partial curve, poor fit]
CCNC(=O)/C(C#N)=C/c1c(N2CCOCC2)nc2ccccn2c1=O	inconclusive [inhibitor, partial curve, poor fit]
Nc1nc(Cl)nc2ccc(Br)cc12	inconclusive [inhibitor, full curve, poor fit]
CC(NC(=O)C1CCN(S(=O)(=O)N2CCC3(CC2)OCCO3)CC1)c1ccccc1 (stereo not given)	inactive
COc1ccc(NC(=O)CSc2nc(O)cc(=O)n2-c2ccccc2)cc1	inactive
